# Test results: the supplement of paper PMC3334620
# Over roughly 33,000 sequences, “E-score (-0.5 to 0.5)” has its median near -0.013; the highest 2% begin near 0.3. The list shows a part of the results.
# Molecular target: T1, Msn1 (UniProt P22148)
# T1 sequence: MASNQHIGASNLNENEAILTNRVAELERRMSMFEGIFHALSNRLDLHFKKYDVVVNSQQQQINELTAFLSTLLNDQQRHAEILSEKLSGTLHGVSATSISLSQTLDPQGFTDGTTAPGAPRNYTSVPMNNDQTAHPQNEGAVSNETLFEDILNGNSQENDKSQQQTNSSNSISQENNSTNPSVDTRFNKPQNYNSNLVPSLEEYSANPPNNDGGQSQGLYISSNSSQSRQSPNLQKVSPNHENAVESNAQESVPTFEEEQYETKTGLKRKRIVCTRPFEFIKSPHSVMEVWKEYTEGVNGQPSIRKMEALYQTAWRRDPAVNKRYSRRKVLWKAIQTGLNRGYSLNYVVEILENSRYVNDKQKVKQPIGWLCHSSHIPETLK
# Experiment: PBM E-score (8-mer binding enrichment) (E-score (-0.5 to 0.5)); higher = stronger / more preferred TF binding; most listed sequences are background and not binding sites
# Settings: protein concentration: 200 nM; construct: GST-full length
# In short: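 For each ungapped eight-base word taken together with its reverse complement, the Universal PBM Analysis Suite assigned an E-score. Binding data came from GST-tagged yeast transcription factors, applied at about 100-200 nM, on universal all-10-mer Agilent arrays made double-stranded by primer extension. Fluorescent anti-GST marked bound protein, and scans were normalised with masliner.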
row,Sequence,PBM E-score
1,ATCAAAAT,0.131
2,GGTAGGAA,-0.137
3,TAACCGAA,0.0463
4,ACGGACTA,0.114
5,GGTGAATA,0.107
6,AAACAGAC,0.124
7,CCGTCGCC,-0.0478
8,ATCTGATC,-0.064
9,CGCTTAAG,-0.116
10,GCAAGTCC,0.127
11,AACATGCC,-0.119
12,ATTACCAA,-0.0223
13,CCGCTACA,-0.161
14,GGTACCCA,-0.189
15,AAGGGCCG,-0.153
16,CTCGGGCA,0.0616
17,AGACCATA,0.0727
18,CTTAGTGA,-0.175
19,ATGACTCC,-0.157
20,CGAGCCGA,0.168
21,AGAAAGCC,-0.0829
22,ACCCGCGG,0.0892

row,Sequence,PBM E-score
1,CTCTCCTC,-0.0768
2,CGTTCTAC,-0.157
3,AGCCTCGA,-0.0675
4,GCTTACAA,-0.0124
5,AAAGGGAT,-8e-05
6,AGTCACCG,-0.173
7,CAAGAAAA,0.213
8,TACCCGCA,-0.0605
9,CAATGGAG,-0.178
10,TAATGTAA,0.114
11,AGCAGCCA,-0.0979
12,AGAAACCC,-0.056
13,CCCTGAAG,-0.267
14,GACTTGAA,0.0362
15,CCCTGGGA,-0.175
16,CAACTACA,-0.0244
17,ATGTACCA,0.316
18,GCCAGCCA,-0.149
19,CGGTGGAC,0.0943
20,GATGTGAC,-0.104
21,GATCGATC,-0.321
22,CACTCGAG,-0.029

row,Sequence,PBM E-score
1,CCTCCTCC,-0.227
2,GACATGGA,0.342
3,CCTGGAGA,-0.0962
4,CCGTAAAG,0.026
5,AAATCATG,0.0666
6,CTGGTGGA,-0.184
7,GGCGCCCA,-0.0597
8,ATTCAGCA,0.017
9,CTTTTCAA,0.151
10,CAAAGAGC,-0.204
11,GGAGCCCC,-0.314
12,GAAAATAC,-0.00969
13,CCTTGTGC,-0.128
14,CGCCGAGC,0.0968
15,TGCCCCAA,-0.101
16,CGTAGACA,0.212
17,GAGGTTAC,0.0109
18,AACGAATG,0.119
19,CAGTATAC,-0.0377
20,CGGGGTTC,-0.187
21,CAAATACG,0.106
22,CTAAATGC,0.035

row,Sequence,PBM E-score
1,GGGGGAAA,-0.249
2,AAAGGGAA,-0.0591
3,ATTAGAAG,0.0235
4,CAACAGAA,-0.101
5,ATCCGAGG,0.0468
6,AGGTTGCA,-0.0307
7,CAGGCCAG,0.0971
8,CCAGGAGG,-0.158
9,CAGACAAG,0.28
10,GATGGTTA,-0.0513
11,AAATCGAA,-0.158
12,CCAAAATA,0.117
13,ATGCGAAG,-0.0114
14,AAAGGTAC,0.0934
15,AATCGATG,0.144
16,CATGTCAC,0.291
17,ATACTGAG,0.0535
18,TCCCCCGA,-0.18
19,ATGAGCAA,0.0578
20,AAGACGAT,0.0374
